Test results: PubChem BioAssay AID1466 (National Center for Advancing Translational Sciences (NCATS), 2008)
In all, about 200,000 compounds went through this assay and about 10 (0.005%) were called active. The inconclusive results got no clear call from the source; some entries with a clear call stand among them for comparison. Calls come from the whole dose curve; as a rule, active = well fitted inhibition curve with a large enough effect; inconclusive = small, poorly fitted or top-dose-only effect, or effect the other way, or another doubt; inactive = no such curve, though single readings can be large or run the other way. Potencies of inconclusive entries are left out as doubtful fits.

Target: Lysosomal alpha-glucosidase (Homo sapiens) (UniProt P10253)
Test: qHTS Assay for Inhibitors of Human alpha-Glucosidase as a Potential Chaperone Treatment of Pompe Disease;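 for activity change, negative = inhibition: plate controls were uninhibited enzyme wells for no effect and no-enzyme background for full effect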
Details: purified human GAA, 4-MU-alpha-glucoside fluorescence; activity change, negative = inhibition: at 76.9 µM (top of the series) unless noted
Method in brief: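 Human alpha-glucosidase, 4 nM, pre-mixed with test compounds before 400 uM 4-methylumbelliferyl substrate; 20 min room temperature at pH 5.0. Fluorescence read after pH 10 stop; AC50 values from Hill-equation fits.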
Potency is the fitted concentration of half-maximal effect; tags give direction and shape of the fitted curve.

| SMILES | Potency | activity change, negative = inhibition |
| --- | --- | --- |
| CCCCNC(=O)c1onc(CSc2ccc(OC)cc2)c1C(=O)O | inconclusive [inhibitor, single point] | – |
| c1ccc(NC(=NCc2ccco2)c2ccccc2)cc1 | inconclusive [inhibitor, single point] | – |
| COc1ccc(CN2CCCC(C(=O)c3ccc(Cl)cc3)C2)cc1Cn1cccn1 (configuration not stated) | inconclusive [inhibitor, single point] | – |
| O=C(COC(=O)/C=C/c1ccccc1)Nc1cccc(Oc2ccccc2)c1 | – | inconclusive: -19.1% [inhibitor] |
| CC(=O)N1CCc2cc(S(=O)(=O)NC(CC(C)C)C(=O)Nc3cc(C)ccn3)ccc21 (configuration not stated) | – | inconclusive: -15.1% [inhibitor] |
| CS(=O)(=O)c1ccc(Cl)c(NC(=O)c2ccc3ccccc3c2)c1 | inconclusive [inhibitor, single point] | – |
| COc1cccc(-c2nnc(SCC(=O)N3CC(C)CC(C)C3)o2)c1 (configuration not stated) | inconclusive [inhibitor, single point] | – |
| COc1ccccc1N1CCN(C(=O)C2CCN(S(=O)(=O)c3ccc(F)cc3)CC2)CC1 | inconclusive [inhibitor, single point] | – |
| COc1ccccc1CN1CCNC(=O)C1CC(=O)N(C)Cc1cnccn1 (configuration not stated) | inconclusive [activator, partial curve, poor fit] | – |
| O=[N+]([O-])c1ccc(-c2cnc(SC(c3ccccc3)c3ccccc3)[nH]2)cc1 | inconclusive [inhibitor, partial curve] | – |
| CC(=O)C1=C(C)NC(SCC(=O)c2ccc(Cl)cc2)=C(C#N)C1CC(C)C (configuration not stated) | inconclusive [inhibitor, full curve] | – |
| CSc1nc2c(c(=O)[nH]1)C(c1ccccc1)C1=C(CC(C)(C)CC1=O)N2 (configuration not stated) | – | inconclusive: 17% [activator] |
| O=C(c1cc2c(ccc3ccccc32)oc1=O)N1CCCC1 | inconclusive [activator, partial curve] | – |
| O=C1c2ccccc2NC(c2ccccc2)N1/N=C/c1ccccc1 (configuration not stated) | inconclusive [inhibitor, partial curve] | – |
| COc1ccc(Nc2c([N+](=O)[O-])ccc3c2=NC2(CCCCC2)N=3)cc1 | – | inactive: -5.58% |
| COc1ccccc1N(C(=O)c1ccncc1)c1nc(-c2ccc([N+](=O)[O-])cc2)cs1 | inconclusive [inhibitor, single point] | – |
| COc1ccc(NC(=O)c2sccc2SCc2cccc(C(F)(F)F)c2)cc1 | inconclusive [inhibitor, partial curve, poor fit] | – |
